From PubChem BioAssay AID1346428 (National Center for Advancing Translational Sciences (NCATS), 2018)
Several values for one entry are separate records, joined by “and”; a condition that tells them apart may be missing. Equal values may be shown once. Screen size: about 48,000 compounds; about 1,200 (2.5%) were called active. Inconclusive results (about 2%) are left out.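 Rule for the calls: active = activation of at least 60% and not above a set upper limit (about 1 call in 100 departs from these limits); inconclusive = activation of 40% to 60%, or above that upper limit; inactive = activation under 40%.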 The list shows a part of the results.

target: Probable G-protein coupled receptor 32 (Homo sapiens) (UniProt O75388); assay: qHTS for Agonists of Human Resolvin D1 Receptor DRV1; conditions: CHO-K1 GPR32 beta-arrestin PathHunter luminescence, 90 min; at 76.9 µM; hits give high values; zero percent set by DMSO-only wells; note: 0% is about no effect
Summary of the method: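 Cells are plated overnight, treated with compounds in DMSO for 90 minutes at 37 °C, and developed with PathHunter detection reagent for 1 hour before luminescence is read; signal reflects beta-arrestin binding to GPR32 in engineered CHO-K1 cells.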

Chain of UniProt O75388 (O75388 whole entry, looked up): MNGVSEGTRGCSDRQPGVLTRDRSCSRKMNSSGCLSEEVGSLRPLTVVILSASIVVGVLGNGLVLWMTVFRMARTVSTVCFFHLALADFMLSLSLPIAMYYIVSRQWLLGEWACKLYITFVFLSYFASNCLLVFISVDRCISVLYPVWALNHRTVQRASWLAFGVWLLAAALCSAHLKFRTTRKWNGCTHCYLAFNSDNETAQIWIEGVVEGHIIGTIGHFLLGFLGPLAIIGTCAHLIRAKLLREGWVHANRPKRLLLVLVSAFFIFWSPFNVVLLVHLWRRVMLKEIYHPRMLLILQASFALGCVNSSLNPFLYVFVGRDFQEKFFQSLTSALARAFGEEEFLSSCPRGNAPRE

activation, inactive:
CCOc1ccc(C2CC(=O)Nc3c2c(=O)[nH]c2ncnn32)cc1 (stereo not drawn) -36.3%
CCn1c(CNC(=O)c2ccc(OC)cc2)nnc1SCC(=O)Nc1ccc(F)cc1 28.2%
CCc1ccc(C(=O)c2cn(CC(=O)Nc3ccc(F)cc3)c3ccc(F)cc3c2=O)cc1 15.3%
Cc1ccc(N2CC(NC(=O)C3CCCCC3)CC2=O)cc1 (stereo not drawn) -5.61%
CCOC(=O)c1cc(S(=O)(=O)N2CCN(c3ccccc3OC)CC2)[nH]n1 -10.1%
COc1ccc(-c2cc(C(=O)Nc3c(C)nn(Cc4ccccc4C)c3C)no2)cc1 24.2%
Cc1cccc(C)c1NC(=O)CC12CCCN1CCC2 -10.2%
COc1cc(NS(=O)(=O)c2cc3[nH]c(=O)[nH]c3cc2C)cc(OC)c1OC 3.63%
Cc1ccc(CCNC(=O)c2sc3nc4n(c(=O)c3c2C)CCCC4)cc1 -6.27%
COc1ccccc1CNC(=O)c1ccc2c(c1)nc(C)n2-c1cccc(C)c1 -22%
Cc1ccc2onc(CNC(=O)N3CCN(c4cc(Cl)ccc4C)CC3)c2c1 -31.6%
CC(CNC(=O)c1cc2cc(S(=O)(=O)N3CCCCC3)ccc2n1C)c1ccccc1 (stereo not drawn) -12.7%
Cc1ccc2c(c1)-c1c(cnc3cc(-c4ccc(Cl)cc4)nn13)CO2 -8.76%
COc1ccc(NC(=O)C(C)N2Cc3ccccc3C2=O)cc1OC (stereo not drawn) -5.96%
COc1ccc(C(C)=O)cc1CSc1nc(NCc2ccccc2)c2ccccc2n1 -29.3%
O=C(O)c1ccc(OCCCOc2ccc(C(=O)O)cc2)cc1 5.11%
Cc1ccc2c(c1)c(=O)c1ccccc1n2CCCC(=O)Nc1ccc(C)c(C)c1 -1.67%
CC(C)CC(=O)n1nc(-c2ccco2)nc1NCc1ccc(Cl)cc1 5.66%
Cc1ccc(COC(=O)c2[nH]c3c(c2C)C(=O)CC(c2ccc(Cl)cc2)C3)cc1 (stereo not drawn) 7.3%
CC(C)OC(=O)c1ccc(NC(=O)CSc2nc(-c3cccs3)cc(C(F)(F)F)n2)cc1 -22.4%
CCOC(=O)c1cnc2ccc(OCC)cc2c1NCCc1ccc(OC)c(OC)c1 -10.1%
CCOc1ccc(S(=O)(=O)NCc2cccn2Cc2cccc(C)c2)cc1 -42.8%
Cc1ccccc1C(=O)Nc1ccc(C(=O)N2CCCC(O)c3cc(Cl)ccc32)c(C)c1 (stereo not drawn) -1.94%
CC(C)COc1ccc(C(=O)N(Cc2cccc(F)c2)C2CCS(=O)(=O)C2)cc1 (stereo not drawn) -16.1%
CCOC(=O)c1cc(-c2ccccc2)n(-c2cccc(C(=O)NC(C)(C)C)c2)c1C -22.5%
CCCn1c(=N)c(C(=O)NC2CCCCC2)cc2c(=O)n3cc(C)ccc3nc21 17.3%
CCCn1c2ccccc2c2cnn(CC(=O)NCCCOC(C)C)c(=O)c21 -1.32%
Cc1ccc(C)c(N2CCN(C(c3ccccc3)c3nnc(-c4ccccc4)o3)CC2)c1 (stereo not drawn) -36.1%
CCc1cccc(C)c1NC(=O)C(NS(=O)(=O)c1ccc2c(c1)CCC(=O)N2)c1ccccc1 (stereo not drawn) -6.28%
CCN1CCc2c(sc(-n3cccc3)c2C(CCC(C)C)NC(=O)NCCC(=O)OC)C1 (stereo not drawn) -24.6%
CC[N+](CC)(CC)CCOc1ccc(/C=C/c2ccccc2)cc1 26.5%
Cc1ccc(NS(=O)(=O)c2c(C)nc3sc(C)c(C)n3c2=O)cc1F -9.06%
NCC1OC(O[C@H]2[C@H](O)[C@@H](OC3C(O)C(N)CC(N)C3OC3OC(CO)C(O)C(O)C3N)O[C@@H]2CO)C(N)C(O)C1O (stereo partly drawn) 4.29%
O=C(CSc1nc2ccsc2c(=O)n1-c1ccc(Br)cc1)NCc1ccc(Cl)cc1 -0.755%
COc1ccc(CCNC(=O)Cc2ccc(NC(=O)N3CCSc4ncccc43)cc2)cc1OC 4.71%
Cc1cccc(NC(=O)c2cc3c([nH]c2=O)CC(c2ccccc2)CC3=O)c1 (stereo not drawn) -9.8%
COc1cccc(-c2nc(CS(=O)(=O)CC(=O)Nc3ccc(C)c(Cl)c3)c(C)o2)c1 -19.7%
COc1cccc(CNC(=O)Cn2cccc2C(=O)c2ccccc2)c1 -20.3%
COc1ccc(C(=O)N2CCN(c3nc4c(OC)cccc4s3)CC2)cc1OC 26.3%
O=C(Cn1c(=O)n(Cc2ccc(F)cc2)c(=O)c2sc3ccccc3c21)Nc1ccc(F)cc1F -25.7%
COC(=O)CCNC(=O)N1CCN(c2nnc(C)c3c(C)n(-c4ccccc4)nc23)CC1 -6.11%
COc1cc(C(=O)NCc2nc(-c3ccc(Cl)cc3)no2)cc(OC)c1OC -5.33%
COc1ccc(CNc2ncnc3c2c(-c2ccccc2)cn3-c2cccc(C)c2)cc1 -35.3%
CCc1cc(C(=O)NCc2ccc(F)cc2)no1 -0.217%
CN(C)C(=O)C(CCN1CCC(O)(c2ccc(Cl)cc2)CC1)(c1ccccc1)c1ccccc1 38.6% and -19.2%
CC(=O)c1ccc(S(=O)(=O)N2CCn3cccc3C2c2ccc(F)c(F)c2)cc1 (stereo not drawn) -9.81%
Cc1ccc(N2CC(NC(=O)C3CCCC3)CC2=O)cc1C (stereo not drawn) 4.83%
CC(C)Oc1ccc(CNC(=O)c2ccc3c(c2)N(C)C(=O)C2CCCCN32)cc1 (stereo not drawn) -13.5%
CCN1CCN(c2cc(C)c3cc(NC(=O)/C=C/c4ccc(OCCC(C)C)cc4)ccc3n2)CC1 -13.2%
COc1cccc(NC(=O)C2CCN(S(=O)(=O)c3c(C)noc3/C=C/c3cccs3)CC2)c1 -25.5%
O=C(COc1ccccc1Cl)Nc1nc(-c2ccc(F)cc2)ns1 24.5%
CCc1nnc(SCc2nc(-c3cccc(C)c3)oc2C)c2cc3sc(C)cc3n12 -14.4%
COc1ccc(C(=O)Nc2cc(NC(=O)c3ccco3)ccc2OC)cc1Cl -10.9%
